The structures appear in SMILES notation. In all, about 310,000 compounds went through this assay and about 14,000 (4.5%) showed an effect of 50% or more. Effects have a minus sign here. Some of the results follow.
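Also: peak tail current of the secondary pulse compared with the same well before compound.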

The target of this assay is human ether-à-go-go-related gene (hERG) potassium channel (human, UniProt Q12809). Kind of assay: primary screen, population patch clamp on CHO cells stably expressing hERG.
Chain of human ether-à-go-go-related gene (hERG) potassium channel (Q12809 whole entry, looked up): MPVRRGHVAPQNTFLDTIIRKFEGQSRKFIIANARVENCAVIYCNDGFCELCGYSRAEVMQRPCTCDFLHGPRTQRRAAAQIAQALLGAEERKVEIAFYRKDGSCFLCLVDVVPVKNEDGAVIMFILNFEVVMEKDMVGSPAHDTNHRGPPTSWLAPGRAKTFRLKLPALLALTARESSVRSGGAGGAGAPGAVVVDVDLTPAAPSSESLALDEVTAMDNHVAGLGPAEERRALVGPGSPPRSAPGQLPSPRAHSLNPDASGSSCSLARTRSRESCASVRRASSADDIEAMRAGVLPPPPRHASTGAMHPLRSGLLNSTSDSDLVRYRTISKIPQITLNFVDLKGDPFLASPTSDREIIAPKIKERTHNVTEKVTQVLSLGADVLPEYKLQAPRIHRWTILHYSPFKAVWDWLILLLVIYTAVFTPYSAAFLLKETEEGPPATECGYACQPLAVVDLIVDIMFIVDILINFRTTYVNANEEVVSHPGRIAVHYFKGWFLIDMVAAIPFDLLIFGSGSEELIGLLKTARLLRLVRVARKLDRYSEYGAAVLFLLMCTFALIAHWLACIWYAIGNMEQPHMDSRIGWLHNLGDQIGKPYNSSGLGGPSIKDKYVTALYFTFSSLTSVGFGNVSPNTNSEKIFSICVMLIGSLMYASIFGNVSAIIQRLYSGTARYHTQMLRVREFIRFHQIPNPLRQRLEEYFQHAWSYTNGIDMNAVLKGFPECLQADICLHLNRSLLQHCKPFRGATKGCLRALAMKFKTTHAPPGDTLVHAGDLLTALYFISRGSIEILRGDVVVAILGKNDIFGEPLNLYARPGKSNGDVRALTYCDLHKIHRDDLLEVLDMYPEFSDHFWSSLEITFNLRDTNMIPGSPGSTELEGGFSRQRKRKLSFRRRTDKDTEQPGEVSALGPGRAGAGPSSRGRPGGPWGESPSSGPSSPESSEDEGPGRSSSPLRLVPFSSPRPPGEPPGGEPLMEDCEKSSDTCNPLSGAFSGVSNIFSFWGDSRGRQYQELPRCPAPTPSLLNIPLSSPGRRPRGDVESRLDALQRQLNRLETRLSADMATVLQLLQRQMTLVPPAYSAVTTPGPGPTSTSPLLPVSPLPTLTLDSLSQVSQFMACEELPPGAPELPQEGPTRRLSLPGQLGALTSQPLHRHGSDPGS
As for `Cn1c(C(=O)O)ccc1S(=O)(=O)N1CCCCCC1`, the “hERG current change (%, negative = inhibition) at 10uM” value is on record as 14.3%.
Then `CCOC(=O)c1cc(NC(=O)c2ccc(Cl)cc2)c(=O)oc1-c1ccccc1`, with -2.34%.
The same measure for `O=C1CC(C(=O)O)S/C(=N\N=C\c2ccc(Br)cc2)N1` (stereo not shown): -9.54%; for `Cc1ccc(NC(=O)CCN2CCc3ccccc3C2)cc1.Cl`: -60.8%; for `Cn1cccc1C(=O)OCC(=O)Nc1cccc(S(=O)(=O)N2CCOCC2)c1`: -14.7%.
The same measure for `CCC(=O)Nc1c(C)nn(C(=O)CC)c1C`: -6%.
`N#Cc1c(N)n(CCNC(=O)c2cccs2)c2nc3ccccc3nc12`: the “hERG current change (%, negative = inhibition) at 10uM” value is given as 10.4%.
The same measure for `CCCCC(=O)Nc1cc(C)c2c(=O)oc3ccccc3c2n1`: 4.39%.
In the case of `C/C(=N/N=C1/NC(=O)CC(C(=O)Nc2ccccc2)S1)c1cccs1` (stereo not shown), the “hERG current change (%, negative = inhibition) at 10uM” value came to 3.32%.
The same measure for `COc1cc(C(=O)O)ccc1OCC(=O)N1CCOCC1`: 0.586%.
Then `Cc1ccc(NC2CCCN(C(=O)CSc3ccccn3)C2)cc1C` (stereo not shown), with -0.578%; and `CCC(C)N(CCNC(=O)CC1Oc2ccc(C)cc2NC1=O)C1CCCCC1` (stereo not shown), with -71.5%; and `N#C/C(=N\Nc1ccc(Cl)c(Cl)c1)C(=O)C1CC1`, with 18.5%.
As for `CC(=O)c1cc2ccc(O)cc2oc1=O`, the “hERG current change (%, negative = inhibition) at 10uM” value is on record as 10.7%.
For `COc1ccc(C(=O)NCc2c(C)nn(Cc3ccccc3)c2C)cc1S(=O)(=O)N1CCOCC1`, the “hERG current change (%, negative = inhibition) at 10uM” value was -17.8%.
The same measure for `Cc1nnc(SCC(=O)NCC(=O)Nc2ccc(F)c(F)c2F)n1Cc1ccccc1`: 16.2%; for `CCOc1ccccc1NC(=O)C1CCN(c2nc(-c3ccc(OC)cc3)no2)CC1`: 14.3%; for `Cc1cc2cc(CN(CC3CCCO3)C(=O)c3cnccn3)c(=O)[nH]c2cc1C` (stereo not shown): -6.24%.
The same measure for `Cn1nc(-c2ccccc2)c(CO)c1Oc1ccc(F)cc1`: -21.4%; for `COc1ccc(S(=O)(=O)N2CCOCC2)c(Cl)c1Cl`: -18.3%; for `CCc1ccc(C(C)NC(=O)C2CCCO2)cc1` (stereo not shown): 2%.
Then `N#Cc1ccsc1NC(=O)C1CCN(S(=O)(=O)c2cccs2)CC1`, with -20.2%; and `COc1cc(C2C(C(=O)c3ccc(C)o3)=C(O)C(=O)N2Cc2cccnc2)ccc1O` (stereo not shown), with 10.9%.
For the molecule `Cc1ccc(NC(=O)COC(=O)C2CCN(c3ccc(C(F)(F)F)cn3)CC2)cc1`, the “hERG current change (%, negative = inhibition) at 10uM” value was -1.26%.
Then `Br.Cc1ccc(Nc2nc(-c3ccc(S(=O)(=O)N4CCOCC4)cc3)cs2)cc1Cl`, with 4.43%.
Then `CN(Cc1nc(Cc2cccc(F)c2)no1)CC1COCCO1` (stereo not shown), with 10.7%; and `CC12CCC(C(=O)Nc3nccs3)(OC1=O)C2(C)C` (stereo not shown), with 6.58%.
Then `O=C(c1cccc(N2CCCC2=O)c1)N1CCN(c2ccccc2)CC1`, with 10.9%.
In the case of `COc1ccccc1NC(=O)Cc1coc2cc(C)ccc12`, the “hERG current change (%, negative = inhibition) at 10uM” value is reported as -13.1%.
The same measure for `COc1ccc(CCN2CC(C(=O)OCC(=O)NC(C)c3cccc(Cl)c3)CC2=O)cc1OC` (stereo not shown): -8.25%.
The same measure for `COC(=O)c1c(NC(=O)C2CCCCC2C(=O)O)sc2c1CCCCC2` (stereo not shown): -10.7%.
Then `CCCn1nc(-c2ccccc2)c2nc3ccccc3nc21`, with -7.16%; and `COc1ccc(-c2nc3c(-c4ccccc4)cnn3cc2C)cc1F`, with 9.32%; and `COCCn1c(SCC(=O)N2CCCC2)nc2c([nH]c3ccccc32)c1=O`, with -61.3%.
Turning to `CC(=O)c1sc2ccccc2c1OC(=O)c1ccco1`, the “hERG current change (%, negative = inhibition) at 10uM” value amounted to 12.6%.
Then `O=C(O)CCSc1nnnn1-c1ccccc1`, with -1.42%; and `Nc1ccc(Br)c[n+]1Cc1cccc2cccnc12.[Br-]`, with -51.6%.
Then `CSCCC(NC(=O)c1ccccc1Cl)C(=O)NNC(=O)c1ccccc1O` (stereo not shown), with 8.71%; and `NC(=O)c1cc([N+](=O)[O-])ccc1NCc1cccc(N)c1`, with -5.66%; and `Cc1cc(Cl)ccc1NC(=O)CN1C(=O)NC2(CCCc3ccccc32)C1=O` (stereo not shown), with -1.38%.
Regarding `CCn1ccc(C(=O)Nc2ccc(Cl)cn2)n1`, the “hERG current change (%, negative = inhibition) at 10uM” value is -18.3%.
Then `Nc1nc(-c2cccnc2)nn1C(=O)Cc1ccccc1`, with -15%; and `Cn1cccc1Cc1nnc(SCC(=O)Nc2ccc3c(c2)OCCO3)n1CCc1ccccc1`, with -15.8%; and `Cc1ccc(C(=O)N2CCCC2)cc1Br`, with 17.9%.
Then `Cc1ccc(NC(=O)C(=Cc2ccc(C(=O)O)cc2)C(=O)Nc2ccc(C)cc2C)c(C)c1`, with -9.22%; and `O=C(Nc1sc2c(c1C(=O)O)CCCCC2)c1cccnc1`, with 16.7%.
Then `Cc1ccc(S(=O)(=O)/C(C#N)=C/c2c(N3CCCCC3)nc3ccccn3c2=O)cc1`, with -29.9%; and `O=C(CSc1nc2ccsc2c(=O)n1Cc1ccccc1)NCc1ccco1`, with -20.2%.
As for `O=C(Nc1ccc(S(=O)(=O)Nc2nccs2)cc1)c1ccc(F)cc1`, the “hERG current change (%, negative = inhibition) at 10uM” value was -5.56%.
For `COC(=O)c1cc(C)nc2c1C(=O)C(=O)C=C2N1CCOCC1`, the “hERG current change (%, negative = inhibition) at 10uM” value is -2.1%.
The same measure for `COc1cc(C(=O)OCC(=O)N2CCCC2)cc2c1OCCO2`: 6.01%; for `COc1ccccc1CNS(=O)(=O)c1ccc(C)cc1`: 7.04%.
As for `Cc1cc2occ(CC(=O)N(C)CC(=O)Nc3ccc(F)cc3)c2cc1C`, the “hERG current change (%, negative = inhibition) at 10uM” value was -9.51%.
Then `CCOc1cc(NC(=S)NCCCN2CCOCC2)c(OCC)cc1NC(=O)CC(C)C`, with 6.63%; and `COc1cc(Cl)ccc1NC(=S)N(CCN1CCOCC1)C1CCN(C(C)=O)CC1`, with 5.53%; and `Cc1cc(S(=O)(=O)N2CCN(c3ccc(F)cc3)CC2)c(C)s1`, with -1.39%.
As for `O=C(Nc1c(C(=O)C2CC2)oc2ccccc12)c1ccc(Cl)cc1`, the “hERG current change (%, negative = inhibition) at 10uM” value is given as 18.7%.
Then `S=c1[nH]cnc2scc(-c3ccccc3)c12`, with 23.4%; and `CCN(CC)S(=O)(=O)c1ccc2[nH]c(=O)cc(C(=O)NCc3ccccc3)c2c1`, with 12.4%.
Regarding `CCC1(c2ccc(F)cc2)NC(=O)N(CC(=O)Nc2ccccc2Cl)C1=O` (stereo not shown), the “hERG current change (%, negative = inhibition) at 10uM” value was -0.572%.
For `Cc1ccnc(NC(=O)CCC(=O)N(CC(=O)NC2CCCCC2)CC2CCCO2)c1` (stereo not shown), the “hERG current change (%, negative = inhibition) at 10uM” value was found to be 2.1%.
The same measure for `CCN(CC)S(=O)(=O)c1ccc(=O)n(CC(=O)N2CCCc3cc(C)ccc32)c1`: -30.2%; for `Cc1cc(C(=O)OCC(=O)Nc2ccccc2F)c(C)o1`: 1.27%; for `Cc1ccc(O)c(NC(=O)C2CCCN2C(=O)OCc2ccccc2)c1` (stereo not shown): 8.29%.
Then `COC(=O)c1nnn(-c2nonc2N)c1CN1CCc2ccccc21`, with 4.57%; and `Oc1c(Br)cc(/C=N/n2c(-c3ccccc3)n[nH]c2=S)c(Br)c1O`, with 18.3%; and `CCCc1ccc(OCC(O)CN2CCc3ccccc3C2)cc1.Cl` (stereo not shown), with -71.5%.
The same measure for `O=C(Nc1ccc(F)cc1)Nc1ccccc1F`: 19.8%; for `CCCOc1ccc2cc(C(=O)NCc3ccccc3)c(=O)oc2c1`: 12.3%; for `CCCNC(=O)C1CCCN(S(=O)(=O)c2ccc3c(c2)CC(C)N3C(=O)C2CC2)C1` (stereo not shown): 4.15%.
Take `Cc1ccc(Sc2ccc(N)cc2C#N)cc1`: the “hERG current change (%, negative = inhibition) at 10uM” value was -39%.
The same measure for `Cc1cccc(N2CCN(C(=O)c3ccc(CNc4c(N5CCC(C)CC5)c(=O)c4=O)cc3)CC2C)c1` (stereo not shown): -10.4%; for `CCC(C)Sc1nnc(-c2c[nH]c3ccccc23)n1CCOC` (stereo not shown): -15.4%.
In the case of `S=C(c1ccc(-c2ccc(Cl)c(Cl)c2)o1)N1CCOCC1`, the “hERG current change (%, negative = inhibition) at 10uM” value is reported as 3.22%.
Then `COC(=O)c1ccccc1NC(=O)CNCCc1ccc(OC)c(OC)c1`, with -0.891%; and `COc1cc2ccccc2cc1C(=O)Nc1ccccc1Cl`, with 19%.
For `CCN(CC)S(=O)(=O)c1ccc(OC(C)C)nc1`, the “hERG current change (%, negative = inhibition) at 10uM” value is -1.16%.
In the case of `Cc1ccc(S(=O)(=O)N(CC(=O)N(C)C)c2cccc([N+](=O)[O-])c2)cc1`, the “hERG current change (%, negative = inhibition) at 10uM” value is listed as -18.2%.
The same measure for `CCn1c2ccccc2c2cc(C3N=C(N)Nc4nc5ccccc5n43)ccc21` (stereo not shown): -9.28%.
Then `CCOC(=O)N/N=C/c1ccc(C)o1`, with -0.825%; and `Cc1nnc(NC(=O)CSc2nnc(-c3ccco3)o2)s1`, with 15.1%.
The same measure for `CC(=O)c1ccc(N(CC(=O)NC2CCCC2)C(=O)c2ccc(C)s2)cc1`: -3.08%; for `COc1ccc(-c2sc(Nc3ccc(F)c(F)c3F)nc2CCC(=O)NN)cc1`: 17%; for `CCOc1ncccc1C(=O)OCC(=O)Nc1ccc(S(=O)(=O)N2CCOCC2)cc1`: -1.11%.
In the case of `COc1cc(/C=C/C(=O)Nc2cccnc2)cc(OC)c1OC`, the “hERG current change (%, negative = inhibition) at 10uM” value was determined as 9.62%.
For `O=C(O)c1ccc(S(=O)(=O)N2CCCc3ccccc32)cc1`, the “hERG current change (%, negative = inhibition) at 10uM” value is on record as 19.7%.
Then `OC[C@H]1OC(O)C[C@@H](O)[C@@H]1O` (stereo partly shown), with 3.65%; and `Cc1ccccc1N(CC(=O)NC1CCCCC1)C(=O)c1csnn1`, with 8.46%; and `CCCCCCOc1ccc(C(CC(N)=O)C(=O)O)cc1` (stereo not shown), with 27.5%.
The same measure for `COc1ccc2nc(SCc3ccccc3)nc(C)c2c1`: 6.57%; for `N#Cc1ccc(CSCC(=O)O)cc1`: 3.78%.

The record behind these values is publication PMC4336329 (PLoS ONE, 2015).
